Assay results reported in PubChem BioAssay AID651815 (National Center for Advancing Translational Sciences (NCATS), 2012).
About 1,100 (52%) of roughly 2,100 compounds were called active. So high a share suggests a set chosen from earlier hits. The inconclusive results got no clear call from the source; some entries with a clear call stand among them for comparison. The call rests on the fitted dose curve; in most records, active means well fitted inhibition curve with a large enough effect; inconclusive means small, poorly fitted or top-dose-only effect; inactive means no such curve, though single readings can be large or run the other way. No potency is given beside an inconclusive call; the fits are too rough.

Biological target: DNA dC->dU-editing enzyme APOBEC-3F (Homo sapiens) (UniProt Q8IUX4)
UniProt Q8IUX4, sequence (Q8IUX4 whole entry, looked up): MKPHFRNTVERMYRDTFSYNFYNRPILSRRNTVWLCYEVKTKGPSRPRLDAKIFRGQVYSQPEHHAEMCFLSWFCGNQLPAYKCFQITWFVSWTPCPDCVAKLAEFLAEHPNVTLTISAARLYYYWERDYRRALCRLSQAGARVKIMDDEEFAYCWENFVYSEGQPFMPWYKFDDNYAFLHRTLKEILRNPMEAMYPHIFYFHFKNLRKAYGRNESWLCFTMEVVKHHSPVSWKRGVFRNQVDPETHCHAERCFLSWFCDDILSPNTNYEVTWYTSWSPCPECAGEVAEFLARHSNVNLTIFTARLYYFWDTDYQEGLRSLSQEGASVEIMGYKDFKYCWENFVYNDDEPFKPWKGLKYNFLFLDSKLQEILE
Assay: qHTS for inhibitors of Vif-A3F interactions: Cherry picks counterscreen; further: nearly all actives have a fitted effect of over 65% in size
Conditions: HeLa A3F-eYFP/Vif cells, eYFP fluorescence, 24 h; series mostly up to 46.1 µM
From the text: The recent discovery and characterization of host restriction factors, which provide a potent defense to invading retroviruses, has provided new targets for antiviral drug development. APOBEC3G (A3G) and APOBEC3F (A3F) are potent cytidine deaminases that block HIV-1 replication; HIV-1 expresses the Vif protein, which counteracts A3G and A3F by binding to them and inducing their proteasomal degradation. The Vif-A3G and Vif-A3F interactions provide two potential targets for development of small molecules which can interfere with the ability of Vif to degrade A3G or A3F. […] To identify inhibitors that can interfere with Vif mediated degradation of A3G and A3F, we have developed Hela cell lines that stably express A3G or A3F tagged with eYFP at the C-terminal end (A3G-eYFP or A3F-eYFP, respectively) and Vif. In the absence of an inhibitor, Vif induces degradation of A3G-eYFP and A3F-eYFP, and the cells are not fluorescent. In the presence of an inhibitor, it is expected that Vif will be unable to degrade A3G-eYFP and/or A3F-eYFP, resulting in an increase in yellow fluorescence. In this counterscreen assay, Vif A3F was screened against the cherry picks ordered from the MLSMR. NIH Chemical Genomics Center [NCGC] NIH Molecular Libraries Probe Centers Network [MLPCN] MLPCN Grant: MH093245 Assay Submitter (PI): Vinay Pathak, National Cancer Institute
A3F-Vif cells were harvested from T225 flask and resuspended in phenol free OPTI-MEM medium with 5% FBS. Then 5 uL of 140,000 cells/mL resuspended cells was dispensed into each well of low base Aurora COC 1,536-well plates (black walled, clear bottom) using a Multidrop Combi dispenser. After overnight culture at 37 deg C with 5% CO2, a total of 23 nL of compounds at 5 selected concentrations from the NPC or positive control (2 mM stock of MG132) in DMSO was transferred to each well of the assay plate using a pintool (Kalypsys, San Diego, CA), and the plates were further incubated at 37 deg C with 5% CO2 for 24 hours. After that, the plates were measured on Acumen Explorer (TTP Lab Tech). The fluorescence was detected by 488 nm/Ex and […].
Potency means the concentration at half of the fitted maximal effect; tags describe the fitted curve by direction and shape.

SMILES	Potency
Cc1ccc(C(=O)NC(=C(Cl)Cl)S(=O)(=O)c2ccccc2)cc1	inconclusive [inhibitor, single point]
CCC(C)Sc1cc(-c2nc3ccccn3c2NC2CCCCC2)ccc1OC (stereo not given)	inactive
COc1cc(N2CCCC2)c(OC)cc1/C=C(/C#N)c1ccc(Br)cc1	active: 2.06 µM
CCN(CC)c1ccc(/C=N/NC(=S)NC)c(O)c1	inactive
COc1ccc(S(=O)(=O)Nc2ccccc2-c2nc3ccccc3[nH]c2=O)cc1	inconclusive [inhibitor, single point]
CCN(CC)C(=O)CSC(Nc1cccc(F)c1)=C(C#N)C#N	inconclusive [inhibitor, single point]
Cc1ccccc1N1C(=O)c2cccc3c(N(C)CCO)ccc(c23)C1=O	inconclusive [inhibitor, single point]
N#Cc1ccccc1NC(=O)CSc1nc(-c2ccccc2)cc(C(F)(F)F)c1C#N	inconclusive [inhibitor, partial curve]
COC(=O)c1cnc(Nc2cc(C)ccc2OC)c2ccccc12	inactive
COc1ccc(OC)c(NC(=O)Cn2cnc3onc(-c4ccc(Cl)cc4)c3c2=O)c1	inactive
COCc1ccc(O)c2ncccc12	inactive
Cn1c(-c2ccccc2)cc2c3no[n+]([O-])c3ccc21	inconclusive [inhibitor, full curve]
N#CC1CC(c2ccccc2)Nc2cc(Cl)ccc2N1 (stereo not given)	inconclusive [inhibitor, single point]
Cc1c(C(=O)N2CCOCC2)[nH]c2c1C(=O)CC(c1ccccc1Cl)C2 (stereo not given)	inconclusive [inhibitor, full curve]
N#C/C(=C/c1ccc2c(c1)OCO2)C(=O)Nc1ccc(O)cc1	inconclusive [inhibitor, single point]
CCc1ccc(NC(=O)c2sc3nc(C)c(C(=O)Nc4ccc(C)cc4C)c(-c4ccco4)c3c2N)cc1	active: 16.4 µM
CCSC1=NSC2=NC(=O)/C(=C\c3coc4ccccc4c3=O)C(=N)N12	inconclusive [inhibitor, single point]
CC(=O)c1cccc(NC(=O)C2CCCN(S(=O)(=O)c3cccc4nonc34)C2)c1 (stereo not given)	inactive
COc1ccc2c(c1)/C(=C\c1cccc(/C=C3/C(=O)Nc4ccc(OC)cc43)n1)C(=O)N2	inconclusive [inhibitor, full curve]
CCOC(=O)c1[nH]c(C)c(C(=O)Nc2ccccc2C)c1C	inconclusive [inhibitor, full curve]
